For three substances, binding results are on record in publication PMC8611056.

The chains behind the UniProt entries cited, without tags or fusion partners. Residues count along the entry.
UniProt P14738, residues 194-511: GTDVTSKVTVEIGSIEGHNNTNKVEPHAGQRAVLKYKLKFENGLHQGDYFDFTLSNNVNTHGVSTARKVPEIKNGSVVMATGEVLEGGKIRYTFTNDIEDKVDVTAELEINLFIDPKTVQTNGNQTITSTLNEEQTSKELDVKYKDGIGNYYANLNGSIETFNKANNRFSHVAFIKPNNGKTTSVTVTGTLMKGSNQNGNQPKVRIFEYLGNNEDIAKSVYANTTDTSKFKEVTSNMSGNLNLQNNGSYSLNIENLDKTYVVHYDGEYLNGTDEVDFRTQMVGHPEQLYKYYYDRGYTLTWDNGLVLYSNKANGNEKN
UniProt Q2FUY2, residues 201-542: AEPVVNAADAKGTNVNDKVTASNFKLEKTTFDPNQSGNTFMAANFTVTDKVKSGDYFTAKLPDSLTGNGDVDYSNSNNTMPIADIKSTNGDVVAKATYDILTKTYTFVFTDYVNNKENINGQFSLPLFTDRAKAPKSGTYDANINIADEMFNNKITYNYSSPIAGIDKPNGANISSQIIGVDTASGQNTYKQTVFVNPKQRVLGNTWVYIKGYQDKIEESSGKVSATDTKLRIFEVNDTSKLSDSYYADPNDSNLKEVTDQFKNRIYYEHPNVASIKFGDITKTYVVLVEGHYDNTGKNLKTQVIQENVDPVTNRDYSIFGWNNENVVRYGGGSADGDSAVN
UniProt Q53654, residues 31-344: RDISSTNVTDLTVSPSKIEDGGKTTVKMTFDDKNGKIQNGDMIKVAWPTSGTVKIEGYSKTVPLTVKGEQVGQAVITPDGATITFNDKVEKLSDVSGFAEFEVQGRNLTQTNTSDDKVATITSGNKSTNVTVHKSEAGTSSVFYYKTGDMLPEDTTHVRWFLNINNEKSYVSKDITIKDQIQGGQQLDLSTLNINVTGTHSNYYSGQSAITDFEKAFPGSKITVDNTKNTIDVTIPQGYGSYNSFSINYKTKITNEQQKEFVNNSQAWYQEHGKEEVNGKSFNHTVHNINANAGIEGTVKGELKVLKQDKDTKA
UniProt Q2FZE9, residues 47-313: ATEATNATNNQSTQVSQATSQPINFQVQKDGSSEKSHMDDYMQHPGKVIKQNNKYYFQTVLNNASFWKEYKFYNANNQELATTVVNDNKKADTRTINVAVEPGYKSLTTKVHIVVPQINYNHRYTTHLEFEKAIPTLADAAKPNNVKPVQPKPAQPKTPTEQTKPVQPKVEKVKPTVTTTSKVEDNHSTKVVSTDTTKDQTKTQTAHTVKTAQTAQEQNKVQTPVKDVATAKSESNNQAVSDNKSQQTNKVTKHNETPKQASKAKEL
UniProt Q2G015, residues 221-559: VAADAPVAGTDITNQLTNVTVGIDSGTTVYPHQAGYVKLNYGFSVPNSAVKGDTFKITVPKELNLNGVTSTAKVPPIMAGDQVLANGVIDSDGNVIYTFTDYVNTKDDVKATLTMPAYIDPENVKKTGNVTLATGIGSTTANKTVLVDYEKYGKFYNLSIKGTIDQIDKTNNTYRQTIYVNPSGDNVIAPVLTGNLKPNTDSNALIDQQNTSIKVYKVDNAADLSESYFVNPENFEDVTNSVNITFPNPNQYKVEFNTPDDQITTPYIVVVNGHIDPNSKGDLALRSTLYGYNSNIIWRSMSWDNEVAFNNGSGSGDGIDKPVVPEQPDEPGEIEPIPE
UniProt O86488, residues 36-568: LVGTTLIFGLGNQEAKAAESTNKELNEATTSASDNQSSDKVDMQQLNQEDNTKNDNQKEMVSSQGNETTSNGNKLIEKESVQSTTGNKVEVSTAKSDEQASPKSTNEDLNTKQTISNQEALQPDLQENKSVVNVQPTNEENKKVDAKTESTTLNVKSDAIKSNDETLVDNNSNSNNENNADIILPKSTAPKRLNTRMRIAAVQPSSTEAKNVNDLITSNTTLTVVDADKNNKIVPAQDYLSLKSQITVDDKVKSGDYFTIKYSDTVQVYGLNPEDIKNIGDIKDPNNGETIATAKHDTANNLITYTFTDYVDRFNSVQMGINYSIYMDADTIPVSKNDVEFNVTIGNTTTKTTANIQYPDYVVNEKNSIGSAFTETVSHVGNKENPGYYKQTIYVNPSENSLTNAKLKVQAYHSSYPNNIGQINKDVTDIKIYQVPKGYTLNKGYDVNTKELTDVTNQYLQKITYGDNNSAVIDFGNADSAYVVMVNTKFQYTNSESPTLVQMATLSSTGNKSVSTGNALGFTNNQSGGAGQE
UniProt O86489, residues 53-606: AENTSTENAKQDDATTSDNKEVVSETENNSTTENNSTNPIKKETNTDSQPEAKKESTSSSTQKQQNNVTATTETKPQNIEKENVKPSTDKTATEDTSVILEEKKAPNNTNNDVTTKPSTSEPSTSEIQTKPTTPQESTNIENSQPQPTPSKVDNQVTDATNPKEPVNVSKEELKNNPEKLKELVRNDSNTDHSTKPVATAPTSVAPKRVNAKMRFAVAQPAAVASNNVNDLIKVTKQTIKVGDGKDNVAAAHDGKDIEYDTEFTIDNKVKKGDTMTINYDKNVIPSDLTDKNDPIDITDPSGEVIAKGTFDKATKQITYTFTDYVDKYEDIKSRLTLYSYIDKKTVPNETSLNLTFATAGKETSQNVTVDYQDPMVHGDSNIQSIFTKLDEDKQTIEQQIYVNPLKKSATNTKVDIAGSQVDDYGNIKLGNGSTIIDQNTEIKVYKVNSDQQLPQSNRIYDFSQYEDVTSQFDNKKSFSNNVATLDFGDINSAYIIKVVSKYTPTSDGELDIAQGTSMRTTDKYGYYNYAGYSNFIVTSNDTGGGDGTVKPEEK
UniProt Q2FXJ2, residues 41-660: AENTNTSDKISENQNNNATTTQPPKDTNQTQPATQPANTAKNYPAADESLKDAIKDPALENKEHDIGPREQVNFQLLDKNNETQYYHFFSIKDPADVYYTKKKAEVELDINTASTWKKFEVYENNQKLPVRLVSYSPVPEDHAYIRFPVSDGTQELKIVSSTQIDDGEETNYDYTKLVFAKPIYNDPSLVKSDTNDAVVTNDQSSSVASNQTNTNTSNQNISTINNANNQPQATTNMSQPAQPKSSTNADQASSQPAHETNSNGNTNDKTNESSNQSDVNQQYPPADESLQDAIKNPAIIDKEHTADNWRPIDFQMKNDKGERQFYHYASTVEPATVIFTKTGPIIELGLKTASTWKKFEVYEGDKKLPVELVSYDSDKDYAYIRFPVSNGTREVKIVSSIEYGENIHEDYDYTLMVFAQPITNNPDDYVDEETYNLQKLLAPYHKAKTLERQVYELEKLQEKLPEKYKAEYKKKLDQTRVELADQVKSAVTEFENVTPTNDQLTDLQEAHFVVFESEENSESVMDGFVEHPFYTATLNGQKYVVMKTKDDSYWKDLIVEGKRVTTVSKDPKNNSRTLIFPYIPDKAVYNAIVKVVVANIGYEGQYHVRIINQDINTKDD
UniProt Q2FZF0, residues 41-613: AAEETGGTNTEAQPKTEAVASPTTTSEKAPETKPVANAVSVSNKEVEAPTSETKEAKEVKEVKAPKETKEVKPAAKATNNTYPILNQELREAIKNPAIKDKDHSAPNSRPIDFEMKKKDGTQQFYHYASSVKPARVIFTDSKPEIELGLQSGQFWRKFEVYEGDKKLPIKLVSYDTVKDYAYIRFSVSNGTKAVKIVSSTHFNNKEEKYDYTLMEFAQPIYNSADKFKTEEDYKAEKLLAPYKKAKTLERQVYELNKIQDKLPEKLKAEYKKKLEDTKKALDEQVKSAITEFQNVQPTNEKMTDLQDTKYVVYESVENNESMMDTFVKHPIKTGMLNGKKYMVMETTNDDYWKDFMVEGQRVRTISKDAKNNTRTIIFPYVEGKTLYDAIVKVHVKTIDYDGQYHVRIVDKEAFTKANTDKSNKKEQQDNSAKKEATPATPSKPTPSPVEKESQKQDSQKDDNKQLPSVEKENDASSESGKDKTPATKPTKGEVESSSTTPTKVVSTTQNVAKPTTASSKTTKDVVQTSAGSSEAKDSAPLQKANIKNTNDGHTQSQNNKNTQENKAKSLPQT
UniProt P04275, residues 764-2813: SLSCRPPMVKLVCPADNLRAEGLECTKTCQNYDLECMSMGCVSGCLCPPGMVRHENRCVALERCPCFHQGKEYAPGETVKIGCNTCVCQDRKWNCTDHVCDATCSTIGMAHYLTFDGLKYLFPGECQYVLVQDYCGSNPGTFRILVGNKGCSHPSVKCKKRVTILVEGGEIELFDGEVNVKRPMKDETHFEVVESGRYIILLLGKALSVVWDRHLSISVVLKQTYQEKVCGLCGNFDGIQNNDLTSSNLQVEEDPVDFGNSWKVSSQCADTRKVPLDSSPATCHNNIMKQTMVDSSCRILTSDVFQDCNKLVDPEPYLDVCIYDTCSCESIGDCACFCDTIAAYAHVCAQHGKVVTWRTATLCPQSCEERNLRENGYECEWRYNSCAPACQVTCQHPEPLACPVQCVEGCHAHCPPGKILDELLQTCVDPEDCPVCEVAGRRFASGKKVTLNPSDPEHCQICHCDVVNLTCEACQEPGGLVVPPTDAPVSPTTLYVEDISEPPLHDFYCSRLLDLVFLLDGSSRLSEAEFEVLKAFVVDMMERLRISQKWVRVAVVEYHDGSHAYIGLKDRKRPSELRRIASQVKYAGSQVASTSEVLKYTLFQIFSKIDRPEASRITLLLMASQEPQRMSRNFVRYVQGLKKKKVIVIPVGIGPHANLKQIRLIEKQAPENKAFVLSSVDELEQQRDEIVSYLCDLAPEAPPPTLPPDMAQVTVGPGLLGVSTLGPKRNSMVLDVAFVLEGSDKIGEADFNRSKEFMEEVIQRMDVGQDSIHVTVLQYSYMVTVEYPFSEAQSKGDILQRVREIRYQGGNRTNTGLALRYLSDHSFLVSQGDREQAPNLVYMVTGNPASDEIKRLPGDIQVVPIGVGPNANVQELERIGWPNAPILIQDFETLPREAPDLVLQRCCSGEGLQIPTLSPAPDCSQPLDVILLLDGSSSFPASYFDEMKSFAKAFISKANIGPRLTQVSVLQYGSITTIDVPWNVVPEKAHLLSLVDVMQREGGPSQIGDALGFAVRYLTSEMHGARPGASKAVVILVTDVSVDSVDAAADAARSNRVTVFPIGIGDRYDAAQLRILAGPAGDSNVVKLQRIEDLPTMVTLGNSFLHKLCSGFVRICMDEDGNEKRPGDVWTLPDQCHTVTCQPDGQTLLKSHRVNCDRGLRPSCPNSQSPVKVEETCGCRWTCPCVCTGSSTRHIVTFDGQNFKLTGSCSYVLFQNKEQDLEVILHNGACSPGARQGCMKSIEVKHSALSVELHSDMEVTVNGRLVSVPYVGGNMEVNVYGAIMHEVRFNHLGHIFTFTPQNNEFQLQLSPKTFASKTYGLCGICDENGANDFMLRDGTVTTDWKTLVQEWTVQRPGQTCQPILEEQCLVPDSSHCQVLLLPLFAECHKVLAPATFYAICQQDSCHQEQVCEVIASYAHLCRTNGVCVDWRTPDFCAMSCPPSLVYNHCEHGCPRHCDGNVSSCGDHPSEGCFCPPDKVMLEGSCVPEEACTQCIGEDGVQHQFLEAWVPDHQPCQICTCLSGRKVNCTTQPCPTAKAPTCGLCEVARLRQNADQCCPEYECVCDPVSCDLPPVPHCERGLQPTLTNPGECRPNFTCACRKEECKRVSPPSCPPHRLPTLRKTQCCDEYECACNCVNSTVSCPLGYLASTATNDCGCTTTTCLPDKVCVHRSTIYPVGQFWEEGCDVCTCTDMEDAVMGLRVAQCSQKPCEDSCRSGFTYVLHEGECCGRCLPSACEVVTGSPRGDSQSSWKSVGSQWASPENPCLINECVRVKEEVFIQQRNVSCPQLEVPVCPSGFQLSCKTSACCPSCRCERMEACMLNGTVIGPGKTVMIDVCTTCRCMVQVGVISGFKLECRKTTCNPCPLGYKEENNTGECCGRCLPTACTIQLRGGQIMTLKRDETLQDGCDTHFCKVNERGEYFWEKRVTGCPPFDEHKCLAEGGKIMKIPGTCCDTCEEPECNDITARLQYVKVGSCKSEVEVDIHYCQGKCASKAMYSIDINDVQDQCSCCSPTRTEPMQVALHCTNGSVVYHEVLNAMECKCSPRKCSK

The target of assay [1] is FnBPA_(194-511) (S. aureus) (UniProt P14738). Kind of assay: ELISA; recombinant CWA proteins coated at 1 μg/well (0.1 M sodium carbonate, pH 9.5), 1 μg/well of vWF in PBS for 1 h at 22 °C, detected with rabbit anti-vWF IgG; also with ristocetin-treated vWF on immobilised IsdB; both purified. On the technique in general: An ELISA detects its analyte on a solid surface through an enzyme-linked reagent.

In assay [2] the target is ClfB_(201-542) (S. aureus) (UniProt Q2FUY2). The description is as above.
For another assay, the target named is CNA_(31-344) (S. aureus) (UniProt Q53654). The assay is described as above.
In assay [3] the target is IsdA_(47-313) (S. aureus) (UniProt Q2FZE9). Described as above.
The target in assay [4] is ClfA_(221-559) (S. aureus) (UniProt Q2G015). Described as above.
The target in assay [5] is SdrD_(36-568) (S. aureus) (UniProt O86488). The description is as above.
Assay [6] has as its target SdrE_(53-606) (S. aureus) (UniProt O86489). The assay is described as above.
The target of assay [7] is IsdH_(41-660) (S. aureus) (UniProt Q2FXJ2). The assay is described as above.
Assay [8] has as its target FnBPB_(163-480) (S. aureus). Described as above.
For assay [9], the target named is IsdB released by lysostaphin from S. aureus SH1000 spa grown in RPMI (75 kDa vWF-binding protein) (S. aureus (endogenous in SH1000 spa)) (UniProt Q2FZF0). The assay is described as follows: far-Western, overlay or dot blot; lysostaphin-released cell wall proteins of S. aureus SH1000 spa, reducing SDS-PAGE, nitrocellulose probed with 2 μg/ml human vWF in PBS for 1 h at 22 °C, then anti-vWF IgG; only the binder purified.

The target of assay [10] is human von Willebrand factor (human) (UniProt P04275). Kind of assay: bacterial adhesion to coated protein (ELISA-type); microtiter wells coated with vWF, incubated with S. aureus SH1000 WT or isdB mutant cells, or with L. lactis with pNZ8037::isdB or empty vector, 1 h at 22 °C; only the target purified.

No constants are given. Whether binding was seen depends on the method and setting. Some results given as binding are weak or reduced against the parent protein; the word gives no strength.

For the substance “human von Willebrand factor (from UniProt P04275 764-2813)”, the binding entry (in assay [1]; in [2]; in the assay with CNA_(31-344) (S. aureus); in assay [3]; in [4]; in assay [5]) was “no binding (tested: 1 μg/well of vWF)” each time. Moreover, the binding entry is on record as “no binding (tested: 1 μg/well of vWF)” in assay [6], “no binding (tested: 1 μg/well of vWF)” in [7], “no binding (tested: 1 μg/well of vWF)” in assay [8] and “binds” in [9].

On to “IsdB on S. aureus SH1000 cells (from UniProt Q2FZF0 41-613)”, for which, in assay [10], the binding result is “binds”.

Turning to “IsdB ectopically expressed on L. lactis NZ9800 (pNZ8037::isdB) (from UniProt Q2FZF0 41-613)”, in [10], the binding result is on record as “binds”.
